{"source": "ChEMBL document CHEMBL4888484", "about": "“Replenishing the malaria drug discovery pipeline: Screening and hit evaluation of the MMV Hit Generation Library 1 (HGL1) against asexual blood stage Plasmodium falciparum ,using a nano luciferase reporter read-out” (2022)", "note": "Screen size: about 150,000 compounds; about 540 (0.36%) showed an effect of 50% or more. The list shows a part of the results.", "data": [{"test_system": "Plasmodium falciparum", "assay": "Primary screen in NF54 nanoGlo assay, in single point, at 2uM, 72h; a lower Z score goes with more inhibition", "assay_type": "functional, Erythrocyte", "conditions": "timepoint 72 hour", "units": {"% Inhibition": "%"}, "values": [{"smiles": "C[C@H](NCc1cnn(C)n1)c1cccc(-n2cccn2)c1", "% Inhibition": 2, "Z score": -0.34}, {"smiles": "COC(=O)C1(NC(=O)CCOc2ccc(C)c(C)c2)CC(CO)C1", "note": "(centres undefined)", "% Inhibition": 6, "Z score": -0.87}, {"smiles": "N#CC1(c2nc(-c3cccc(OCc4cccnc4)c3)no2)CCC1", "% Inhibition": -9, "Z score": 1.26}, {"smiles": "COc1cc(-c2cc(C(=O)N[C@H]3CC(=O)N(C)C3)[nH]n2)cc(OC)c1OC", "% Inhibition": 6, "Z score": -1.2}, {"smiles": "CC(C)(C(=O)O)C(=O)N1CCC[C@H](CNC(=O)Nc2cccc(F)c2)C1", "% Inhibition": -12, "Z score": 1.93}, {"smiles": "CC[C@H](NC(=O)Nc1cccc(NC(=O)C(C)C)c1)c1nnc2n1CCCCC2", "% Inhibition": -1, "Z score": 0.07}, {"smiles": "Cc1c(NC(=O)c2cscn2)c(=O)n(-c2ccccc2)n1C", "% Inhibition": -9, "Z score": 1.18}, {"smiles": "COC(=O)[C@@H]1C[C@H](NS(=O)(=O)c2ccc3c(c2)NC(=O)CO3)CN1C", "% Inhibition": -8, "Z score": 1.01}, {"smiles": "COc1cccc(CN2CCC[C@@]3(CCN(C(=O)c4cc5ccccc5o4)C3)C2)c1", "% Inhibition": 2, "Z score": -0.24}, {"smiles": "Cn1c(CCNC(=O)c2ccc(-c3ccc4c(c3)CCO4)cc2)n[nH]c1=O", "% Inhibition": -3, "Z score": 0.58}, {"smiles": "CCN(C[C@H](C)C#N)C(=O)COC(=O)c1cccc(CC#N)c1", "% Inhibition": -9, "Z score": 1.19}, {"smiles": "Cc1cc(CN2C[C@H](c3ccccc3)C3(CCC3)C2)oc1C(=O)O", "% Inhibition": 2, "Z score": -0.29}, {"smiles": "COCCN(CC=C(C)C)CC1CCN(Cc2ccccc2OC)CC1", "% Inhibition": -15, "Z score": 2.03}, {"smiles": "O=C([C@H]1CCCN(c2nc3ncccc3n3cccc23)C1)N1CCN(c2cccc(Cl)c2)CC1", "% Inhibition": -4, "Z score": 0.71}, {"smiles": "COc1ccc(OC)c(CCNC(=O)Cn2ccc3cc(S(=O)(=O)N4CCCC4)ccc32)c1", "% Inhibition": 35, "Z score": -1.03}, {"smiles": "CCOCCOc1cnn(-c2ccccc2)c(=O)c1Nc1cccc(C(=O)NCc2ccc(F)cc2)c1", "% Inhibition": -16, "Z score": 1.73}, {"smiles": "O=S(=O)(c1cccnc1)N1CCC[C@@]2(C1)Nc1cccnc1N=C2NCc1ccccc1", "% Inhibition": 29, "Z score": -3.28}, {"smiles": "COc1cccc(Cn2c(-c3sccc3C)n[nH]c2=O)c1", "% Inhibition": -9, "Z score": 1.66}, {"smiles": "CC(C)(C)S(=O)(=O)Cc1ccc(N)cc1", "% Inhibition": -14, "Z score": 2.81}, {"smiles": "CCOC(=O)CN(C(=O)c1cc(C)n(C)n1)C1CCCCC1", "% Inhibition": 6, "Z score": -0.61}, {"smiles": "CCOc1ccccc1OCC(=O)Nc1ccccc1Oc1ccccc1Cl", "% Inhibition": 11, "Z score": -1.42}, {"smiles": "O=C(O)CN(Cc1ncc(C2CC2)o1)c1ccccc1", "% Inhibition": 7, "Z score": -0.77}]}]}
